Measured values reported in PubChem BioAssay AID485281 (National Center for Advancing Translational Sciences (NCATS), 2010).
Values joined by “and” are separate entries in the source; they are usually repeats but may differ in a detail not shown here. Equal entries are not always repeated. The campaign covered roughly 350,000 compounds. About 260 (0.074%) were called active. The inconclusive results got no clear call from the source; some entries with a clear call stand among them for comparison. Calls follow the shape of the dose curve; as a rule, active = well fitted inhibition curve with a large enough effect; inconclusive = small, poorly fitted or top-dose-only effect; inactive = no such curve, though single readings can be large or run the other way. Potencies beside an inconclusive call are fits to weak or partial responses and may not hold up.
Also: nearly all actives have a fitted effect of over 20% in size.
Potency is read from the fitted curve at half-maximal effect; tags tell the direction and shape of the fitted curve.

Each compound was assayed against Ferritin light chain (Equus caballus) (UniProt P02791) (assay: qHTS Assay for Identification of Novel General Anesthetics). Settings: apoferritin/1-aminoanthracene competitive binding, fluorescence; series mostly up to 77.5 µM.
Chain of UniProt P02791 (P02791 whole entry, looked up): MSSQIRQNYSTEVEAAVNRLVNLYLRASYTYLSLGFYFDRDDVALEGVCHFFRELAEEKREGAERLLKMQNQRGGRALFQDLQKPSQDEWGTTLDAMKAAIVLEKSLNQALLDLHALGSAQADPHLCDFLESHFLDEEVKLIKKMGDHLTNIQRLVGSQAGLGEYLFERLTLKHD
In short: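 Probe: 1-aminoanthracene (50% saturated, PBS). Protein: horse-spleen apoferritin, 10 uM. Incubation: 10 min, room temperature. Detection: 380 nm excitation, 535 nm emission. Analysis: normalized response, four-parameter Hill.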
`C/C(=N\NC(=O)CSCc1ccc(Cl)cc1)c1ccc2c(c1)OCCO2` was tested, and the Potency was inconclusive: 14.1 µM [inhibitor, partial curve].
With `Cc1ccc(Cl)cc1N(C)C(=O)C1CCCN(c2ncnc3onc(-c4ccc(F)cc4)c23)C1` (configuration not stated) the Potency was inconclusive: 3.55 µM [inhibitor, full curve].
In the case of `COc1ccc(OC)c(S(=O)(=O)N2CCCCCC2)c1`, the Potency was “inactive”.
`CC(OC(=O)CNC(=O)c1ccc2c(c1)OCO2)C(=O)NCCC1=CCCCC1` (configuration not stated) was tested, and the Potency was inconclusive: 28.2 µM [inhibitor, single point].
In the case of `C=CCOC(=O)C1=C[C@H](c2cn(C(C)=O)c3ccccc23)C[C@H](OCc2ccc(CO)cc2)O1`, the Potency was inconclusive: 28.2 µM [inhibitor, single point].
`Cc1ccccc1NC1=C(Cl)C(=O)OC1OC(=O)c1ccco1` (configuration not stated) was tested, and the Potency was “inactive”.
With `O=C(CNC(=O)OCc1ccccc1)NC1CCCCCCC1` the Potency was inconclusive: 35.5 µM [inhibitor, single point].
`O=C(Cn1c(C(=O)N2CCc3ccccc3C2)cc2sccc21)c1ccccc1` was tested, and the Potency was inconclusive: 10 µM [inhibitor, partial curve, poor fit].
For `Cc1ccc(CNC(=O)CN2N=C(c3ccccc3)CCC2=O)cc1`, the Potency was inconclusive: 7.94 µM [inhibitor, full curve].
For `COc1cc(/C=C/C(=O)OCC(=O)NC(=O)NC(C)(C)C)cc(OC)c1OC`, the Potency was inconclusive: 28.2 µM [inhibitor, partial curve].
`COc1cccc(Nc2nc(-c3sc(NC(=O)CC(C)C)nc3C)cs2)c1` was tested, and the Potency was inconclusive: 56.2 µM [inhibitor, partial curve, poor fit].
With `O=C(CNc1ccc(Br)cc1)c1ccccc1` the Potency was inconclusive: 39.8 µM [inhibitor, single point].
In the case of `COC(=O)c1sccc1-c1ccc(C(=O)Nc2ccccc2)o1`, the Potency was inconclusive: 12.6 µM [inhibitor, partial curve].
In the case of `Cc1nc(N2CCC(C)CC2)c2c(C)c(C(=O)Nc3ccc(C(F)(F)F)cc3)sc2n1`, the Potency was “inactive”.
`CCOC(=O)c1c(N)sc(C(O)(C(F)(F)F)C(F)(F)F)c1-c1ccccc1` was tested, and the Potency was inconclusive: 39.8 µM [inhibitor, partial curve].
With `Cc1cccc(CSc2ncccc2C(=O)O)c1` the Potency was “inactive”.
`CCCCCCCCSc1n[nH]c(N)n1` was tested, and the Potency was inconclusive: 50.1 µM [inhibitor, single point].
With `Cc1ccccc1CSCC(=O)Nc1ccccc1F` the Potency was inconclusive: 8.91 µM [inhibitor, partial curve, poor fit].
`COc1ccc(-n2nc3c(N4CCCC(C(=O)NCCc5ccccc5C)C4)nnc(C)c3c2C)cc1` (configuration not stated) was tested, and the Potency was inconclusive: 11.2 µM [inhibitor, partial curve].
With `CCCCOc1ccc(NC(=O)C(=O)NCCCn2ccnc2)cc1` the Potency was inconclusive: 39.8 µM [inhibitor, partial curve, poor fit].
For `O=[N+]([O-])c1ccccc1S(=O)(=O)Nc1cccc2cccnc12`, the Potency was inconclusive: 35.5 µM [inhibitor, partial curve] and inconclusive: 31.6 µM [inhibitor, partial curve].
`COc1cccc(NC(=O)N2CCc3ccccc3C2)c1` was tested, and the Potency was inconclusive: 25.1 µM [inhibitor, partial curve].
In the case of `COc1cccc(C2CCCN2Cc2nc(CCC(C)C)no2)c1` (configuration not stated), the Potency was inconclusive: 35.5 µM [inhibitor, single point].
In the case of `C=CCn1c(-c2ccoc2)n[nH]c1=S`, the Potency was “inactive”.
In the case of `CC(C)(C)c1ccc(NC(=O)COC(=O)CCc2nc3ccccc3c(=O)[nH]2)cc1`, the Potency was inconclusive: 39.8 µM [inhibitor, single point].
For `O=c1c(O[C@@H]2O[C@H](CO)[C@H](O)[C@H](O)[C@H]2O)c(-c2ccc(O)c(O)c2)oc2cc(O)cc(O)c12`, the Potency was “inactive”.
In the case of `COc1ccc(CNC(=O)c2cc(-c3cccs3)on2)cc1`, the Potency was inconclusive: 11.2 µM [inhibitor, partial curve].
With `CCCCn1c(=N)n(CCOc2ccccc2OC)c2ccccc21` the Potency was “inactive”.
With `O=S(=O)(Nc1cccc(Cl)c1)c1ccc2oc(=S)[nH]c2c1` the Potency was inconclusive: 22.4 µM [inhibitor, partial curve].
With `O=C(CCc1ccc(S(=O)(=O)N2CCOCC2)cc1)N/N=C/c1ccc(O)c(O)c1O` the Potency was “inactive”.
With `O=C(Nc1cccnc1)Nc1ccc(Br)cc1Cl` the Potency was “inactive”.
For `Nc1nc(Cl)nc2c1ncn2[C@@H]1O[C@H](CO)[C@@H](O)[C@H]1O`, the Potency was “inactive”.
For `Cc1c(C(=O)NC2CC2)oc2ccc(S(=O)(=O)N3CCCCCC3)cc12`, the Potency was inconclusive: 31.6 µM [inhibitor, single point].
`CCOc1ccccc1N1CCN(Cc2cnc(-c3ccccc3)[nH]2)CC1` was tested, and the Potency was “inactive”.
For `O=S(=O)(c1ccccc1)c1ccccc1/C=N\O`, the Potency was inconclusive: 35.5 µM [inhibitor, partial curve].
`COc1ccc(C(=O)c2ccccc2)c(O)c1O` was tested, and the Potency was “inactive”.
`CCCOc1ccc(CNC(=O)CN2C(=O)c3cccnc3Oc3ccc(C)cc32)cc1` was tested, and the Potency was inconclusive: 22.4 µM [inhibitor, partial curve].
In the case of `COc1ccc(-c2nc(CS(=O)(=O)CC(=O)Nc3cccc(C(C)=O)c3)c(C)o2)cc1`, the Potency was inconclusive: 25.1 µM [inhibitor, partial curve].
`Cc1ccc(C(=O)NCc2ccco2)cc1Br` was tested, and the Potency was inconclusive: 25.1 µM [inhibitor, partial curve].
`COc1ccccc1NC(=S)N/N=C/c1ccc(O)cc1` was tested, and the Potency was “inactive”.
In the case of `CCc1ccc(NCc2cc3ccc(OC)cc3n(CC(=O)Nc3ccc(C)c(Cl)c3)c2=O)cc1`, the Potency was “inactive”.
With `CC1CCCCN1C(=O)CSc1nnc(-c2c[nH]c3ccccc23)o1` (configuration not stated) the Potency was inconclusive: 31.6 µM [inhibitor, partial curve].
`Cc1cc(=O)oc2cc(OCC(=O)OCC(=O)Nc3ccccc3F)ccc12` was tested, and the Potency was inconclusive: 10 µM [inhibitor, partial curve].
For `O=c1c2c(-c3cccs3)csc2ncn1/N=C/c1ccc(OC(F)F)cc1`, the Potency was inconclusive: 15.8 µM [inhibitor, partial curve].
For `Cc1c(C(=O)N2CCC(C)CC2)c(S(=O)(=O)Nc2ccc(OC(F)(F)F)cc2)c(C)n1C`, the Potency was inconclusive: 56.2 µM [inhibitor, single point].
With `N#CCc1ccc(NS(=O)(=O)c2ccc(C3CCCCC3)cc2)cc1` the Potency was inconclusive: 50.1 µM [inhibitor, single point].
`COc1ccc(C2=NS(=O)(=O)N(C)C(C(=O)Nc3ccc4c(c3)OCO4)=C2)cc1` was tested, and the Potency was inconclusive: 17.8 µM [inhibitor, partial curve].
For `C=CCn1c(-c2ccccc2)ccc(C#N)c1=O`, the Potency was inconclusive: 31.6 µM [inhibitor, partial curve].
With `CC(C)CNC(=S)NC(=O)c1ccc(F)cc1` the Potency was “inactive”.
For `Cc1ccc(-c2csc(NC(=O)Cn3[nH]c(=O)c4ccccc4c3=O)n2)cc1`, the Potency was inconclusive: 7.94 µM [inhibitor, partial curve].
For `CC(C)C[C@H](NC(=O)c1nc[nH]c1C(=O)NC1CCN(C(=O)OC(C)(C)C)CC1)C(=O)OC(C)(C)C`, the Potency was inconclusive: 7.94 µM [inhibitor, partial curve].
In the case of `COc1cc(C(=O)Oc2c(OC)cc(C(=S)N3CCOCC3)cc2OC)cc(OC)c1OC`, the Potency was “inactive”.
`CC(Oc1ccc2ccccc2c1)C(=O)NNC(=O)Nc1ccccc1F` (configuration not stated) was tested, and the Potency was inconclusive: 50.1 µM [inhibitor, single point].
In the case of `Cc1onc(-c2c(F)cccc2Cl)c1C(=O)Nc1nnc(C(F)(F)F)s1`, the Potency was “inactive”.
With `CC(=O)Nc1cccc(C(=O)NCc2ccc3c(c2)CCN3C(=O)c2ccc(F)cc2)c1` the Potency was inconclusive: 44.7 µM [inhibitor, single point].
For `Cc1cc2c(cc3c(SCc4ccccc4Cl)nnc(C)n32)o1`, the Potency was “inactive”.
With `COc1ccc(-n2c(SC3CCOC3=O)nc3ccccc32)cc1` (configuration not stated) the Potency was inconclusive: 39.8 µM [inhibitor, partial curve].
`CCCCNC(=O)c1ccc2c(c1)S(=O)(=O)c1ccccc1C2=O` was tested, and the Potency was inconclusive: 12.6 µM [inhibitor, partial curve].
For `Cc1ccc(/C=C/C(=O)c2ccc(N3CCOCC3)cc2)s1`, the Potency was inconclusive: 28.2 µM [inhibitor, partial curve].
`C#CC[N+](CC)(CC)CC#Cc1cccc(Cl)c1` was tested, and the Potency was “inactive”.
With `Cc1ccc(CNC(=O)Cn2cccc2C(=O)c2ccccc2C)cc1` the Potency was inconclusive: 14.1 µM [inhibitor, partial curve] and inconclusive: 15.8 µM [inhibitor, partial curve].
For `COc1ccc(/C=N/NC(=O)c2nc(-c3ccccc3)n(-c3ccccc3)n2)c(O)c1`, the Potency was “inactive”.
`Cc1cc(N/C(=N/S(=O)(=O)c2cc(F)ccc2F)c2ccccc2)n(-c2ccccc2)n1` was tested, and the Potency was inconclusive: 5.62 µM [inhibitor, full curve, poor fit].
In the case of `Cc1csc(-c2cnn(-c3ccccc3)c2NC(=O)c2cccc(C(F)(F)F)c2)n1`, the Potency was inconclusive: 7.08 µM [inhibitor, full curve, poor fit].
With `N#Cc1c[nH]n2c(NC3CCCC3)c(-c3ccc(Cl)cc3)nc12` the Potency was inconclusive: 11.2 µM [inhibitor, partial curve].
For `Cc1ccc(C)c(OCC(=O)NC2CCCCCC2)c1`, the Potency was inconclusive: 44.7 µM [inhibitor, single point].
`Cc1ccc(-n2nnnc2SCC(=O)Nc2ccc(N3CCN(C)CC3)cc2)c(C)c1` was tested, and the Potency was “inactive”.
